The record followed here is ChEMBL document CHEMBL4888484, “Replenishing the malaria drug discovery pipeline: Screening and hit evaluation of the MMV Hit Generation Library 1 (HGL1) against asexual blood stage Plasmodium falciparum ,using a nano luciferase reporter read-out” (2022).

In all, about 150,000 compounds went through this assay and about 540 (0.36%) showed an effect of 50% or more. Some of the results follow.

In the test the test system is Plasmodium falciparum. Kind of test: Primary screen in NF54 nanoGlo assay, in single point, at 2uM, 72h; a lower Z score goes with more inhibition. The test is classed as functional, Erythrocyte. The following applies: timepoint 72 hour.
Consider `COc1ccccc1N1CCN(C(=O)c2cc3n(n2)[C@H](C(F)(F)F)C[C@H](c2ccco2)N3)CC1`, for which the % Inhibition – broadly, the relative decrease from the control value, in per cent – was -6% and the Z score was found to be 0.72.
The matching figures for `O=C(c1cc(Cl)ccc1F)N1CCCN(C2CCCCC2)CC1`: -11% and 2.03.
On the same counts, the results for `O=C([C@H]1CCCN(C(=O)N2CCc3sccc3C2)C1)N1CCc2[nH]ncc2C1` are 32% and -4.65.
On the same counts, the results for `CN(C(=O)C1CCS(=O)(=O)C1)C1CCCN(Cc2ccccc2)C1` (centres undefined) are -3% and 0.5.
Turning to `COc1cc(C)ccc1C(=O)Nc1cccc2c1CCO2`, the “% Inhibition” value stood at 2% and the Z score was -0.24.
On the same counts, the results for `CCOc1cccc(CNc2ccc(C(=O)NC)cc2C)n1` are -13% and 1.42.
The matching figures for `Cn1ccc2c(-c3ncccc3C(=O)N3C[C@@H]4CC[C@H]3C4)ccnc21`: -3% and 0.63.
On the same counts, the results for `O=C1CCC(c2ccccc2)(c2ccccc2)CN1CCCN1CCOCC1` are -6% and 1.03.
As for `Cc1noc(C)c1CNC[C@H]1CN(C)CCO1`, the “% Inhibition” value is given as -9% and the Z score is reported as 1.24.
The matching figures for `O=C(N[C@H]1CC[C@@H](O)C1)c1ccc(-c2ccc3c(c2)OCCO3)s1`: -10% and 1.08.
The matching figures for `CCN(CC)Cc1cnc2c(C(=O)N(C)C3Cc4ccccc4C3)cnn2c1`: -6% and 0.83.
`CC(C(=O)OC(C)(C)C)N1[C@@H]2CC[C@H]1CN(C)CC2` (some centres undefined): the “% Inhibition” value is reported as -2% and the Z score amounted to 0.27.
The matching figures for `O[C@H]1CN(Cc2ccccc2Cn2cccn2)C[C@@H]1F`: -12% and 1.19.
As to `CN(c1cnn(C)c1)S(=O)(=O)c1ccccc1`, the “% Inhibition” value is -12% and the Z score came to 1.93.
On the same counts, the results for `COc1ccccc1N1CCN(c2ncccc2CNC(=O)[C@@H]2CCCO2)CC1` are -1% and 0.12.
The matching figures for `Cc1ncc(NC(=O)N2CCC[C@](C)(c3ccccc3)CC2)cn1`: -6% and 0.93.
Regarding `Cc1nnc(CN[C@@H](Cc2ccccc2)c2ccc(C)c(C)c2)o1`, the “% Inhibition” value worked out at 11% and the Z score is given as -0.96.
The matching figures for `CCN1CCN(Cc2nc(CC(C)C)nn2-c2ccc(OC)cc2)CC1`: -15% and 1.93.
The matching figures for `Cc1noc(C)c1C(=O)NCc1ccccc1CN1CCOCC1`: -5% and 0.74.
On the same counts, the results for `Cc1ccc(N[C@@](C)(C(=O)NCCn2cncn2)c2ccccc2)cc1` are -18% and 2.36.
As for `Cc1[nH]nc2c1N[C@H](c1cc(F)ccc1Br)NC2=O`, the “% Inhibition” value is -18% and the Z score was 2.
For the molecule `COC(=O)[C@@H](Cc1ccccc1)NC(=O)[C@H]1CCC(=O)N1C(=O)OCc1ccccc1`, the “% Inhibition” value turned out to be 0% and the Z score is listed as -0.03.
With `CN(C1CCCC1)S(=O)(=O)c1ccc2c(c1)C(=O)Nc1ccccc1O2`, the “% Inhibition” value is -12% and the Z score was determined as 1.71.
Regarding `O=S(=O)(NCC1=CCCCC1)c1ccc(Cl)cc1`, the “% Inhibition” value is given as 7% and the Z score is -0.86.
The matching figures for `CCNCc1ccc(Br)cc1`: -21% and 2.64.
On the same counts, the results for `O=C(Nc1cc(Cc2ccccc2)ccc1O)C1CCC(O)CC1` (centres undefined) are 6% and -0.65.
With `C[C@@](N)(C(=O)Nc1cc(F)ccc1O)C1CC1`, the “% Inhibition” value is recorded as -4% and the Z score is 0.76.
On the same counts, the results for `CC[C@H](C)CS(=O)(=O)N1CCC(O)(CC)CC1` are 28% and -3.51.
On the same counts, the results for `Cc1ccc(S(=O)(=O)N[C@H](C(=O)NC[C@H]2CC[C@H](C(=O)O)CC2)C(C)C)cc1` are -15% and 1.98.
The matching figures for `O=C(Nc1cnn(C(F)F)c1)c1cc(C2CCCCC2)n[nH]1`: 2% and -0.48.
For `Cc1nn(C)c2nc(NC3CCN(CCN(C)C)CC3)sc12`, the “% Inhibition” value is listed as -2% and the Z score was found to be 0.29.
The matching figures for `CC(C)(C)N(CCC#N)C(=O)c1cscn1`: -4% and 0.47.
Regarding `Cc1cc2c(c(-c3nc(C)cnc3C)c1)O[C@@H](CN)C2`, the “% Inhibition” value is recorded as -2% and the Z score is 0.39.
The matching figures for `Cc1ccc(CN2C[C@]34C=C[C@H](O3)[C@@H](C(=O)NCc3ccccc3Cl)[C@H]4C2=O)cc1`: -10% and 1.5.
As for `O=C(CCc1nc(C2CCCC2)no1)Nc1cccc(-c2ncco2)c1`, the “% Inhibition” value is listed as -21% and the Z score is given as 3.17.
The matching figures for `O=C(c1cccc(C(F)(F)F)c1)N1C[C@@H]2C[C@H]1C[C@@H]2NS(=O)(=O)c1ccccc1`: 1% and -0.16.
The matching figures for `N#Cc1cccnc1N1CCC(Oc2ccc3ncccc3c2)(C(=O)O)CC1`: 0% and 0.07.
The matching figures for `C[C@H]1CN(S(=O)(=O)c2ccc3c(c2)CC(=O)N3)CCO1`: -5% and 0.67.
On to `C[C@](O)(CNS(=O)(=O)Cc1ccccc1)C(c1ccccc1)c1ccccc1`, for which the “% Inhibition” value is reported as 28% and the Z score is listed as -3.72.
The matching figures for `Cc1ccc(O)c(CNC2(c3c(F)cccc3F)CCC2)n1`: 1% and -0.18.
The matching figures for `CC(=O)Nc1cccc(NC(=O)[C@H](Cc2ccccc2)Nc2nc(C)cc(C)n2)c1`: -13% and 1.66.
The matching figures for `Cc1ccc(CCC(=O)N2CCc3nc[nH]c(=O)c3C2)c(C)c1`: -6% and 0.83.
